# B1: 17G IgG (full length human IgG1, lambda) (antibody, V domains shown)
# VH: [letters of about 100 residues omitted]IRYSAGYWGQGTLVTVSS
# VL: SYVLTQPPSASGTPGQRVTISCSGSSSNIGSNYVYWYQQLPGTAPKLLIYRNNQRPSGVPDRFSGSKSGTSASLAISGLRSEDEADYYCAAWDDRLSGWVFGGGTKLTVLG
# notes: also called IgG 17G
# How the values were obtained:
# [1] = biological target: T1, human CC chemokine receptor 4 (CCR4) (human, UniProt P51679 1-360); experiment: flow cytometry, IgG titration on CCRF-CEM cells; one site-specific binding fit (Prism)
# T1 construct: whole, on cells; Always presented on cells; also called CD194; human CCR4
# T1 sequence (looked up): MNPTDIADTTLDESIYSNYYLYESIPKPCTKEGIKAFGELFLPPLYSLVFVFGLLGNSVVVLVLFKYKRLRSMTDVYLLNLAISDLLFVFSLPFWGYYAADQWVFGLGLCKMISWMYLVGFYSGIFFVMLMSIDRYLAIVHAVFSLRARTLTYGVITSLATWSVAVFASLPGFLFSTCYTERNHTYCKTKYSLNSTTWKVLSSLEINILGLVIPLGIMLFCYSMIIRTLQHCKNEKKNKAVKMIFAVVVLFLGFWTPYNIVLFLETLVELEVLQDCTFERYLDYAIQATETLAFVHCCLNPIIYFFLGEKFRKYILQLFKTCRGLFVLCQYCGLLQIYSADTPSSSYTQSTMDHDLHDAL
# Experimental: (§1) The IgG forms of antibodies 17G, 9E and KM3060var using various CCR4⁺ cell types were used (see Example 2).
# (§2) For the flow cytometry experiments, the cells were harvested from the culture flasks, washed 2 times with PBS, re-suspended in PBS with 0.2% BSA and 0.09% NaN₃ and finally aliquoted 1×10⁵ cells per well into V-shaped 96-well plates (Greiner Bio-One, Frickenhausen, Germany). Cells were centrifuged at 400×g for 5 min and then incubated at 4° C. for 45 min with different antibody dilutions.
# (§3) After washing with PBS with 0.2% BSA and 0.09% NaN₃, the cells were stained with 10 μg/ml of RPE-conjugated goat anti-human IgG (AbDSerotec, Düsseldorf, Germany) for 30 minutes at 4° C. The stained cells were washed, re-suspended in 200 μl PBS with 0.2% BSA and 0.09% NaN₃ and transferred to a U-shaped 96-well plate (Corning, Schiphol-Rijk, The Netherlands) for acquisition on EasyCyte flow cytometer (Guava Technologies, Hayward, Calif., USA).
# [2] = biological target: T1, human CC chemokine receptor 4 (CCR4); experiment: cell-based or functional assay
# [3] = biological target: T1, human CC chemokine receptor 4 (CCR4); experiment: flow cytometry, IgG titration on CCR4+ DT40 cells; one site-specific binding fit (Prism)
# Experimental: as §1, §2, §3
# [4] = biological target: T1, human CC chemokine receptor 4 (CCR4); experiment: flow cytometry, IgG titration on CCR4+ HEK293T cells; one site-specific binding fit (Prism)
# Experimental: as §1, §2, §3
# [5] = biological target: T1, human CC chemokine receptor 4 (CCR4); experiment: competition flow cytometry on CCR4-transfected DT40 cells: unlabelled IgG against 0.28 nM biotinylated 17G IgG, streptavidin-RPE
# Experimental: (§4) To analyze the epitope binding of anti-CCR4 antibodies 17G, 9E and KM3060var, competition experiments were performed using flow cytometry. The binding of biotinylated antibodies to CCR4 transfected DT40-cells was challenged in the presence of different concentrations of non-biotinylated anti-CCR4 antibodies. The CCR4⁺ DT40 cells were harvested from culture flasks, washed 2 times with PBS, re-suspended in PBS with 0.2% BSA and 0.09% NaN₃ and finally aliquoted 1×10⁵ cells per well into V-shaped 96-well plates (Greiner Bio-One, Frickenhausen, Germany). Cells were centrifuged at 400×g for 5 min and then incubated at 4° C. for 3-4 hours with fixed amounts of biotinylated IgG and different concentrations of non-biotinylated antibodies. After washing with PBS with 0.2% BSA and 0.09% NaN₃, the cells were stained with 2.5 μg/ml of Streptavidin—RPE (BD Pharmingen, San Diego, Calif., USA) for 30 minutes at 4° C. The stained cells were washed, re-suspended in 250 μl PBS with 0.2% BSA and 0.09% NaN₃ and transferred to a U-shaped 96-well plate (Corning, Schiphol-Rijk, The Netherlands) for acquisition on EasyCyte flow cytometer (Guava Technologies, Hayward, Calif., USA). The results shown in FIGS. 10 A, B and C illustrate that the 17G and 9E antibodies have epitopes that are identical or at least overlapping.
# [6] = biological target: T1, human CC chemokine receptor 4 (CCR4); experiment: competition flow cytometry on CCR4-transfected DT40 cells: unlabelled IgG against 7 nM biotinylated 9E IgG, streptavidin-RPE
# Experimental: as §4
# [7] = biological target: T1, human CC chemokine receptor 4 (CCR4); experiment: flow cytometry, IgG titration on CCR4+ DT40 cells (2); one site-specific binding fit (Prism)
# Experimental: as §1, §2, §3
binder,measurement,setting,value
B1,Kd,[1],0.16 nM
same,"Ca++ flux in CCRF-CEM cells: signal response to MDC stimulation (% of MDC in the absence of IgGs), IgG 10 µg/mL",[2],42%
same,"Ca++ flux in CCRF-CEM cells: signal response to TARC stimulation (% of TARC alone), IgG 10 µg/mL",[2],-1%
same,Kd,[3],0.42 nM
same,Kd,[4],0.62 nM
same,IC50 (read off the curve),[5],~0.4 nM
same,IC50 (read off the curve),[6],~0.3 nM
same,Kd,[7],0.42 nM

# Source: patent US20160208003A1 (AFFITECH RESEARCH, published 2016)
